The supplement of paper PMC4604168 (melanoma cell lines)
The other results are listed elsewhere or left out. Many values rest on one well or one pass, so single values are uncertain.

System: SkMel30
Experiment: cell count relative to DMSO control; melanoma cells; higher = more viable cells
Conditions: library dose: standard library concentration; 72 h
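Further: cells treated in 1,536-well plates, then fixed and DAPI-stained, with nuclei counted from automated high-throughput microscope images.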

SMILES	cell count [%]
CC1(C)NC(=O)N(c2ccc([N+](=O)[O-])c(C(F)(F)F)c2)C1=O [nilutamide] + O=S(=O)(c1ccccc1)N(CC(F)(F)F)c1ccc(C(O)(C(F)(F)F)C(F)(F)F)cc1 [T0901317] (first compound 5 µM, partner dose 7 µM)	92.8
O=C(Nc1cccc(Cl)c1)Nc1ncc(CCNc2ncnc3ccsc23)s1 + COc1ccc(-c2ccc3c(N4CCOCC4)nc(N4C[C@@H](C)O[C@@H](C)C4)nc3n2)cc1CO [KU0063794] (first compound 0.004 µM, partner dose 0.1 µM)	81.6
CC1(C)NC(=O)N(c2ccc([N+](=O)[O-])c(C(F)(F)F)c2)C1=O [nilutamide] + CCCCCCCCCCCC1=C(O)C(=O)C=C(O)C1=O [Embelin] (first compound 5 µM, partner dose 6 µM)	84.1
COc1cc(Nc2ncc(F)c(Nc3ccc4c(n3)NC(=O)C(C)(C)O4)n2)cc(OC)c1OC [Tamatinib] + COc1cc(N2CCC(N3CCN(C)CC3)CC2)ccc1Nc1ncc(Cl)c(Nc2ccccc2S(=O)(=O)C(C)C)n1 [NVP-TAE684] (first compound 2 µM, partner dose 0.4 µM)	80.5
COc1cc(Nc2ncc(F)c(Nc3ccc4c(n3)NC(=O)C(C)(C)O4)n2)cc(OC)c1OC [Tamatinib] + Cc1cc([N+](=O)[O-])ccc1NS(=O)(=O)c1cc(Cl)ccc1Cl [FH535] (first compound 2 µM, partner dose 5 µM)	64.7
CC1(C)NC(=O)N(c2ccc([N+](=O)[O-])c(C(F)(F)F)c2)C1=O [nilutamide] + COc1ccc(-c2ccc3c(N4CCOCC4)nc(N4C[C@@H](C)O[C@@H](C)C4)nc3n2)cc1CO [KU0063794] (first compound 5 µM, partner dose 0.1 µM)	90.5
O=C(O)c1ccc(-c2c[nH]c3ncc(-c4ccccc4)cc23)cc1C1CCCC1 + COc1cc(N2CCC(N3CCN(C)CC3)CC2)ccc1Nc1ncc(Cl)c(Nc2ccccc2S(=O)(=O)C(C)C)n1 [NVP-TAE684] (first compound 0.8 µM, partner dose 0.4 µM)	107
Cn1cncc1[C@@](N)(c1ccc(Cl)cc1)c1ccc2c(c1)c(-c1cccc(Cl)c1)cc(=O)n2C [tipifarnib] + CCCCCCCCCCCC1=C(O)C(=O)C=C(O)C1=O [Embelin] (first compound 0.05 µM, partner dose 6 µM)	102
CC1(C)NC(=O)N(c2ccc([N+](=O)[O-])c(C(F)(F)F)c2)C1=O [nilutamide] + CCN(CC)CCCCNc1ncc2cc(-c3cc(OC)cc(OC)c3)c(NC(=O)NC(C)(C)C)nc2n1 [PD173074] (first compound 5 µM, partner dose 0.5 µM)	118
C[C@@H]1CCN(C(=O)CC#N)C[C@@H]1N(C)c1ncnc2[nH]ccc12 + CCc1ccc(CCOc2ccc(CC3SC(=O)NC3=O)cc2)nc1 [pioglitazone] (first compound 5 µM, partner dose 10 µM)	114
Cn1cncc1[C@@](N)(c1ccc(Cl)cc1)c1ccc2c(c1)c(-c1cccc(Cl)c1)cc(=O)n2C [tipifarnib] + Oc1cc(-c2nc(-c3ccccc3)[nH]c2-c2ccncc2)ccc1Cl [L779450] (first compound 0.05 µM, partner dose 1 µM)	83
Cn1cncc1[C@@](N)(c1ccc(Cl)cc1)c1ccc2c(c1)c(-c1cccc(Cl)c1)cc(=O)n2C [tipifarnib] + COc1ccc(-c2ccc3c(N4CCOCC4)nc(N4C[C@@H](C)O[C@@H](C)C4)nc3n2)cc1CO [KU0063794] (first compound 0.05 µM, partner dose 0.1 µM)	77.9
Cn1cncc1[C@@](N)(c1ccc(Cl)cc1)c1ccc2c(c1)c(-c1cccc(Cl)c1)cc(=O)n2C [tipifarnib] + CCN(CC)CCCCNc1ncc2cc(-c3cc(OC)cc(OC)c3)c(NC(=O)NC(C)(C)C)nc2n1 [PD173074] (first compound 0.05 µM, partner dose 0.5 µM)	93.1
C[C@@H]1CCN(C(=O)CC#N)C[C@@H]1N(C)c1ncnc2[nH]ccc12 + Oc1nc(-c2ccc(C(F)(F)F)cc2)nc2c1CSCC2 [XAV939] (first compound 5 µM, partner dose 10 µM)	90.7
O=C(Nc1cccc(Cl)c1)Nc1ncc(CCNc2ncnc3ccsc23)s1 + CCCCCCCCCCCC1=C(O)C(=O)C=C(O)C1=O [Embelin] (first compound 0.004 µM, partner dose 6 µM)	83.8
COc1cc(Nc2ncc(F)c(Nc3ccc4c(n3)NC(=O)C(C)(C)O4)n2)cc(OC)c1OC [Tamatinib] + O=C(Nc1ccccc1)c1cc([N+](=O)[O-])ccc1Cl [GW9662] (first compound 2 µM, partner dose 10 µM)	105
Cn1cncc1[C@@](N)(c1ccc(Cl)cc1)c1ccc2c(c1)c(-c1cccc(Cl)c1)cc(=O)n2C [tipifarnib] + N#Cc1c(O)c2c(-c3ccc(-c4ccccc4O)cc3)csc2[nH]c1=O [A769662] (first compound 0.05 µM, partner dose 10 µM)	88
O=C(Nc1cccc(Cl)c1)Nc1ncc(CCNc2ncnc3ccsc23)s1 + COc1cc(N2CCC(N3CCN(C)CC3)CC2)ccc1Nc1ncc(Cl)c(Nc2ccccc2S(=O)(=O)C(C)C)n1 [NVP-TAE684] (first compound 0.004 µM, partner dose 0.4 µM)	112
